One may read the inhibition as the relative decrease from the control value, in per cent.

Values joined by “and” are separate entries in the source; they are usually repeats but may differ in a detail not shown here. Equal values may be shown once. Out of some 340,000 compounds screened, about 6,900 (2%) were called active. Cut-off read from the data, not from the text of the source: active = inhibition above about 30%; inactive = below that, where a call was filed. The entries are a selection whose mix differs from that of the whole data set. Entries without a call were filed so in the source.

The target in this experiment is D(2) dopamine receptor (Homo sapiens) (UniProt P14416). In words: HTS Assay for Allosteric Antagonists of the Human D2 Dopamine Receptor: Primary Screen for Antagonists. Note: 0% is about no effect. Conditions: HEK293 TREx D2 cells, calcium flux, dopamine EC80; at 10 µM; stronger effect = higher value. Summed up: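 Calcium flux kinetic readout in an inducible HEK293 TREx D2 line plated overnight at 30 C. After 180 s compound exposure, an EC80 dopamine challenge follows with another 180 s kinetic read to detect antagonism.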
Sequence of UniProt P14416 (P14416 whole entry, looked up): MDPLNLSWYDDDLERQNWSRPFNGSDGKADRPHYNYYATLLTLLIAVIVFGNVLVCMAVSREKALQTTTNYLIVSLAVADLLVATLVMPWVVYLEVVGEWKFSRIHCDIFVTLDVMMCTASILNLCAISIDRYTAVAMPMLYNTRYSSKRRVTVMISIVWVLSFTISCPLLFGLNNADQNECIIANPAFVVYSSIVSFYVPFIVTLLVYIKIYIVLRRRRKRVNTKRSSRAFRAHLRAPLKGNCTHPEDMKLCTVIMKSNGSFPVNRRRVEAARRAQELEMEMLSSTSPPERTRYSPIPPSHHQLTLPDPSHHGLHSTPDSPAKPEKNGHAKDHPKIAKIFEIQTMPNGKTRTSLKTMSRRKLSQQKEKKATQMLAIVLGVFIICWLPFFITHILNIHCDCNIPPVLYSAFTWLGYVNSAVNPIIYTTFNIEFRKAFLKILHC
(A change in cytosolic calcium serves as a functional read-out for many receptors and channels.)
As to `Cc1ccc(CNS(=O)(=O)c2ccc(F)c(C(=O)Nc3ccc(C)c(F)c3)c2)cc1`, the inhibition was -2.49%.
Under `Cc1ccc(N(C)C(=O)Cn2nc(Cc3ccncc3)c3ccccc3c2=O)cc1C` stands 3.59%.
As to `Cc1ccccc1NC(=O)c1ccc(NC(=O)N2CCSc3ncccc32)cc1`, the inhibition was 11.8%.
For the molecule `CC1CCN(S(=O)(=O)c2ccc3c(c2)N(CC(=O)NCc2ccccc2Cl)C(=O)CO3)CC1`, the inhibition is -4.25%.
The figure for `COc1cccc(NC(=O)c2sc(-n3nc(C)c(Cc4ccccc4Cl)c3C)nc2C)c1` is 13.5%; for `COc1ccc(OC)c(-n2c(=O)[nH]c3cc(C(=O)NCCc4ccc(OC)c(OC)c4)ccc3c2=O)c1` it is 12.8%.
`COc1ccc(NCc2nc3ccccc3n2CCOc2ccccc2C)cc1`: the inhibition was determined as 4.04%.
With `Cc1ccc(OCc2cc(=O)n3c4c(sc3n2)CCCC4)c(C)c1`, the inhibition was found to be 25.4%.
With `O=c1c(S(=O)(=O)c2ccccc2)cn(Cc2ccc(F)cc2)c2cc(N3CCCC3)c(F)cc12`, the inhibition amounted to 5.09%.
On to `COc1cccc(CNC(=O)C2CCC(CNS(=O)(=O)c3cccs3)CC2)c1` (stereo not given), for which the inhibition is -1.91%.
On to `CCCC(=O)N(c1ccc2oc3c(c2c1)CCCC3)S(=O)(=O)c1ccc(CC)cc1`, for which the inhibition is -22.2%.
As to `COc1ccc(Cn2ccc3nc(C)c(C(=O)Nc4ccc(OC)c(OC)c4)cc3c2=O)cc1`, the inhibition stood at 6.83%.
Consider `COc1cccc(N2CCN(C(=O)CCn3nc(C)c(S(=O)(=O)N4CCCC4)c3C)CC2)c1`, for which the inhibition turned out to be 20.1%.
The figure for `O=C(CSc1nc(=O)n(Cc2ccncc2)c2c1CCC2)Nc1ccccc1` is -5.1%.
Consider `CCCN(CCC)C(=O)c1c[nH]c2ccc(S(=O)(=O)N(C)c3ccc(Cl)cc3)cc2c1=O`, for which the inhibition was -15.6%.
Consider `COc1cccc(CNC(=O)CCc2c(C)c3cc4c(C)coc4cc3oc2=O)c1`, for which the inhibition was -1.47%.
The figure for `OCCN1CCN(CCCN2c3ccccc3Sc3ccc(Cl)cc32)CC1` is active: 85.7%; for `Cc1ccccc1C(=O)Nc1cccc(-c2nc3cccnc3s2)c1` it is 4.08%.
As for `COc1ccc(C(CNC(=O)COc2cc(C)c(Cl)c(C)c2)N2CCCCC2)cc1` (stereo not given), the inhibition is -13.3%.
For `Cc1ccc(Cn2cc(S(=O)(=O)c3ccccc3)c(=O)c3cc(F)c(N4CCOCC4)cc32)cc1`, the inhibition is -8.47%.
The figure for `Cn1ccc2cc(S(=O)(=O)N3CCN(C(=O)Nc4cccc(F)c4)CC3)ccc21` is -15.4%.
In the case of `COc1ccc(NC(=O)C(c2ccc(OC)cc2)N(C)C(=O)Cc2cccs2)cc1` (stereo not given), the inhibition was found to be 6.3%.
On to `CC(C)(Oc1ccc(Cl)cc1)C(=O)Nc1ccc(-c2nc3ncccc3o2)cc1`, for which the inhibition was 5.93%.
Consider `COc1ccccc1N1CCN(S(=O)(=O)CCNC(=O)c2cc(=O)c3ccccc3o2)CC1`, for which the inhibition is 2.59%.
Turning to `CCCCOC(=O)c1ccc(NC(=O)C2(c3cccs3)CCOCC2)cc1`, the inhibition came out at 6.44%.
The figure for `COc1ccccc1-c1cc(C(=O)Nc2c(C)nn(Cc3ccc(Cl)cc3)c2C)no1` is 4.69%; for `CCOC(=O)c1c(NC(=O)CSc2cn(CCNC(=O)c3ccc(OC)cc3)c3ccccc23)sc2c1CCC2` it is -10.8%.
For `COc1ccc(-c2nnc(SCC(=O)Nc3cccc(C)c3)s2)cc1`, the inhibition was -14.1%.
Under `CC(=O)N1CCc2cc(CNS(=O)(=O)c3cccs3)ccc21` stands 21%.
As to `CCOc1ccccc1N(C)C(=O)c1sc2nc3n(c(=O)c2c1C)CCCC3`, the inhibition is -23%.
Under `COc1ccc(-c2cn3nc(N4CCCC(C(=O)Nc5ccccc5F)C4)sc3n2)cc1` (stereo not given) stands -12.3%; under `Cc1nn(CC(=O)Nc2ccc(C(C)C)cc2)c(=O)c2c(C)n(-c3ccc(Cl)cc3)nc12`, -2.29%; under `COc1ccc(NC(=O)CSc2nccn2C2CCCC2)cc1OC`, -24.4%.
In the case of `CCCCN(CCCNC(=O)c1cc(Nc2ccc(OC)cc2OC)nc2ccccc12)Cc1ccccc1`, the inhibition worked out at 8.87%.
Take `Cc1ccccc1OCC(=O)Nc1ccc(OCc2cc(=O)n3ccccc3n2)cc1`: the inhibition is -2.72%.
Consider `Cc1ccc(CNC(=O)c2ccc3oc(=O)n(Cc4ccccc4)c3c2)cc1`, for which the inhibition amounted to 8.46%.
With `O=C(CSc1nc2c(c(=O)[nH]1)CN(Cc1ccc3c(c1)OCO3)CC2)Nc1cc(F)ccc1F`, the inhibition was 7.09%.
The figure for `CCCn1c2ccccc2c2cnn(CC(=O)Nc3ccccc3OC)c(=O)c21` is 16.1%; for `COc1cc(NC(=O)Nc2nnc(N3CCCCC3)s2)cc(OC)c1` it is -21.7%.
With `Cc1cccc(NC(c2cccc(Cl)c2)c2ccc3cccnc3c2O)n1` (stereo not given), the inhibition was -21.6%.
For the molecule `Cc1ccc2c(CC(=O)Nc3ccc(S(=O)(=O)N4CCC(C)CC4)cc3)coc2c1`, the inhibition amounted to 6.42%.
The figure for `Cc1nn(-c2ccccc2)c2c1N(CCCC(=O)NCc1ccc(OC(C)C)cc1)C(=O)CS2` is 0.727%; for `CC1CCc2nc3ccc(S(=O)(=O)N4CCC(C(=O)NCc5ccccc5Cl)CC4)cc3c(C(=O)O)c2C1` (stereo not given) it is 1.19%.
In the case of `O=c1c2[nH]c3ccccc3c2nc(SCc2ccccc2F)n1-c1ccc(F)cc1`, the inhibition came to 26.2%.
As to `CCCCSCCCNC(=O)c1cn(CC)c2ccc(S(=O)(=O)N3CCOCC3)cc2c1=O`, the inhibition is -9.29%.
With `COc1ccc(S(=O)(=O)N2CCC(C(=O)Nc3ccc(Oc4ccccc4)cc3)CC2)cc1OC`, the inhibition amounted to 13.4%.
With `O=S(=O)(c1ccc(OCC(O)CN2CCN(c3ccccc3O)CC2)cc1)N1CCOCC1` (stereo not given), the inhibition is active: 69.4%.
As for `COc1ccc(NC(=O)c2ccc(-c3nc(COc4ccccc4)c(C)o3)cc2)cc1`, the inhibition amounted to 6.96%.
For `Cc1ccc(-c2nn(-c3ccccc3)cc2/C=N/NC(=O)c2ccc3c(c2)OCO3)cc1`, the inhibition is active: 31.8%.
Under `COC(=O)c1ccc(NC(=O)c2cc3cc(C)ccc3n2C)cc1` stands 9.18%; under `COc1ccc(OC)c(NC(=O)C(CCSC)NS(=O)(=O)c2cccs2)c1` (stereo not given), 6.45% and active: 32.4%.
The figure for `COc1cc(OC)cc(C(=O)NC2CC3CCC(C2)N3Cc2ccco2)c1` (stereo not given) is active: 48.2%; for `CCCn1c(Nc2cccc(OC)c2)nc2ccccc21` it is active: 38.8%.
Under `COc1ccc(-c2nc(SCC(=O)N3CCC(C)CC3)n[nH]2)cc1` stands 10.3%; under `Nc1c(C(=O)Nc2ccc(Cl)cc2F)sc2nc(-c3cccs3)ccc12`, 3.23%.
In the case of `COc1ccc(Cl)cc1N(C(=O)c1ccco1)C(C(=O)NC1CCCC1)c1ccncc1` (stereo not given), the inhibition is active: 39.4%.
The figure for `Cc1ccc(Cl)cc1NC(=O)/C(C#N)=C\c1cn(Cc2ccc(F)cc2)c2ccccc12` is 1.57%.
Take `COc1ccc(C(=O)Nc2ccc(C(=O)OCc3cc(=O)n4nc(C(C)C)sc4n3)cc2)cc1`: the inhibition amounted to 0.675%.
Turning to `OC1(CNCc2ccccc2)C2CC3CC(C2)CC1C3` (stereo not given), the inhibition is active: 56.5%.
Turning to `Fc1ccc(CNc2cc(-c3ccccc3)nc3nncn23)cc1`, the inhibition is -4.12%.
Take `Cc1ccccc1C(=O)Nc1ccc2nc(SCCOc3ccccc3)sc2c1`: the inhibition is -7.73%.
`CCOC(=O)c1c(S(=O)(=O)NCC(=O)NCc2ccc(C)cc2)c(C)n(C)c1C`: the inhibition is -17.4%.
Under `CCc1nnc(SCc2nc(-c3ccccc3)oc2C)c2cc3sccc3n12` stands 0.992%; under `CCc1ccc(CNC(=O)Cc2c(C(=O)O)c(C)cn2C)cc1`, -2.67%; under `Cc1ccc(C)c(NC(=O)Cn2c(=O)n(Cc3cccs3)c(=O)c3cccnc32)c1`, -4%.
Take `CC(C)(C)OC(=O)N1CCC(c2c(C(=O)N3CCN(c4ncccn4)CC3)cnn2-c2ccc(F)cc2F)CC1`: the inhibition was determined as 6.08%.
The figure for `COc1ccc(-c2cn3nc(N4CCC(C(=O)Nc5cc(Cl)ccc5OC)CC4)sc3n2)cc1` is 3.14%.
Take `CN(CC(=O)Nc1cccc(C#N)c1)Cc1ccc(Cl)cc1`: the inhibition is active: 68.3%.
With `Cc1ccc(-c2cc(C(=O)N3CCN(S(=O)(=O)c4ccc(Br)s4)CC3)[nH]n2)c(C)c1`, the inhibition was found to be 23.8%.
Regarding `CCOc1ccc(CCNC(=O)C2Cc3ccccc3N2C(=O)CC)cc1OCC` (stereo not given), the inhibition was -4.17%.
Regarding `Cc1ccc(N(CC(=O)Nc2ccc(Br)c(C)c2)S(=O)(=O)c2cccs2)cc1`, the inhibition was 3.12%.
For the molecule `OC(CNCC#Cc1ccccc1)c1ccccc1` (stereo not given), the inhibition is active: 39.1%.
Under `CN(C)c1ccc(CNC(=O)C(Cc2ccccc2)NS(=O)(=O)c2ccc3c(c2)oc(=O)n3C)cc1` (stereo not given) stands -18.8%; under `O=C(NCc1ccccc1Cl)NC(=O)c1ccccc1`, active: 33.4%.
With `COc1cccc(CCNc2ncnc3c2nnn3C)c1`, the inhibition is 10.4%.
Regarding `O=C(NCc1ccc(F)cc1)c1cc2c(s1)-c1ccccc1SC2`, the inhibition was determined as 14.8%.
On to `O=C(CCCn1c(=O)c2ccccc2n(CC(=O)Nc2ccc(F)cc2F)c1=O)NCc1ccccc1Cl`, for which the inhibition is 14.4%.
In the case of `COc1cc2c(=O)n(CCC(=O)NCC3CCCO3)c(=O)n(CC(=O)Nc3c(C)cccc3C)c2cc1OC` (stereo not given), the inhibition is -4.52%.
As to `CCCCOC(=O)c1ccc(NC(=O)/C(C#N)=C/c2ccc(-c3ccccc3)o2)cc1`, the inhibition is -6.98%.
For `CCCCCCn1c(=O)[nH]c2nc3cc(N)ccc3nc2c1=O`, the inhibition is active: 32%.
With `Cc1ccc(S(=O)Cc2nc(-c3ccc(C(=O)NC(C)c4ccccc4)cc3)oc2C)cc1` (stereo not given), the inhibition was 1.11%.
Under `CC(NC(=O)CSc1n[nH]c(-c2ccccc2)n1)c1nc2ccccc2n1C` (stereo not given) stands -15.6%; under `COc1cc(OC)c(NC(=O)c2cc(S(=O)(=O)N3CCCC3)cn2C)cc1Cl`, -0.53%.
The figure for `CCC1CCCCN1C(=O)Cn1c(=O)n(CC2CCC(C(=O)NC)CC2)c(=O)c2sccc21` (stereo not given) is 15.7%; for `CCCCc1ccc(Nc2ncnc3c2cnn3-c2ccc(C)cc2)cc1` it is 13.2%.
The figure for `Cc1ccc2c(c1)nc(SCC(O)c1ccc(Br)cc1)n2C` (stereo not given) is -16.3%.
`COc1ccc(Cl)cc1S(=O)(=O)Nc1cccc(-c2ccc(N3CCOCC3)nn2)c1`: the inhibition is -20.9%.
For `Cn1c(=O)c2sccc2n2c(CCC(=O)NCc3ccccc3)nnc12`, the inhibition was -4.99%.
In the case of `COc1ccc(N2CCN(Cc3nc4c(c(=O)[nH]c(=O)n4C)n3Cc3ccccc3)CC2)cc1`, the inhibition came out at 7.89%.
As for `Cc1ccc(C)c(CSc2nc3ccncc3n2Cc2nc(-c3ccccc3Cl)oc2C)c1`, the inhibition was 12.5%.
The figure for `Cc1ccc(C(C(=O)NC2CCCCC2)N(CCCN2CCOCC2)C(=O)c2snc(C(N)=O)c2N)cc1` (stereo not given) is active: 49.2%; for `CCc1nn(CC(=O)NC2CC2)c(=O)c2cc3ccccc3n12` it is 7.05%; for `O=C(Cn1c(=O)nc(-c2ccccc2)c2cc(Cl)ccc21)NCCCc1ccccc1` it is -4.14%.
In the case of `COc1cccc(CNC(=O)c2c3c(nc4ccccc24)C(=O)N(C2CCCCC2)C3)c1`, the inhibition was -1.01%.
In the case of `Cn1cc(C(=O)NCc2ccccc2)c(=O)c2cc(S(=O)(=O)N3CCCCCC3)ccc21`, the inhibition was 17.3%.
